In PubChem BioAssay AID651711 (Broad Institute, 2012):
Screen size: about 350,000 compounds; about 180 (0.051%) were called active. The inconclusive results got no clear call from the source; some entries with a clear call stand among them for comparison.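 Rule for the calls: active = mean replicate inhibition above about 25%, with every replicate also reaching it (limit read from the data, passing the limit was not always enough); inconclusive = only one of those two criteria met; inactive = neither criterion met.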

Target: Protein disulfide-isomerase A6 (Homo sapiens) (UniProt Q15084)
Experiment: inhibitors of ERp5-driven insulin aggregation, primary screen, biochemical, turbidity, absorbance 650 nm, single point (AID 651711)
Conditions: 90 min, at 9.99 µM, active compounds read high

UniProt Q15084, sequence (Q15084 whole entry, looked up): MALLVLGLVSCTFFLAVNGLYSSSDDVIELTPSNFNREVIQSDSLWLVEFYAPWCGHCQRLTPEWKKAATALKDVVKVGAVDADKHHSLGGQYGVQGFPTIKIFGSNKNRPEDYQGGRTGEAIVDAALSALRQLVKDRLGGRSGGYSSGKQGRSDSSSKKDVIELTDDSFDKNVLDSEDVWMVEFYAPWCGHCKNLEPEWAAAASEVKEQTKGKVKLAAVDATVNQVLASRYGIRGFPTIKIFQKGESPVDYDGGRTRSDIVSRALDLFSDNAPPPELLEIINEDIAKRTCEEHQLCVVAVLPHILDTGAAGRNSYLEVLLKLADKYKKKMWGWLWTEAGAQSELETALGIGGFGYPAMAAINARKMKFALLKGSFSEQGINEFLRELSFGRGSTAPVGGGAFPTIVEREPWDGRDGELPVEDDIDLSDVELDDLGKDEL

Compound | inhibition
Cc1ccc2c(c1)COc1c3ccc(C(=O)N[C@@H](C)CO)cc3nn1-2 | inconclusive: 47.6%
CCC(=O)N(C)C[C@@H]1Oc2cc(-c3ccccc3OC)ccc2S(=O)(=O)N([C@@H](C)CO)C[C@@H]1C | inactive: -3.15%
O=C(Cn1cc(C(F)(F)F)cc(Cl)c1=O)Nc1cc(S(=O)(=O)N2CCOCC2)ccc1Cl | inconclusive: 43.1%
COc1ccc(C2C=C(C)Nc3nc4ccccc4n32)cc1 (stereo not given) | inconclusive: 44.4%
CCOC(=O)C1CCN(S(=O)(=O)c2ccc3[nH]c4c(c3c2)CCCC4)CC1 | inactive: 0.728%
COc1ccc(S(=O)(=O)N2CCCOC2CNC(=O)C(=O)NCCc2ccco2)cc1OC (stereo not given) | inactive: 7.29%
CC1Nc2ccccc2C(=O)N1NS(C)(=O)=O (stereo not given) | inconclusive: 44.1%
O=C(CCN1CCCCC1)N[C@H]1CC[C@H](CCNS(=O)(=O)c2ccc(Cl)cc2)O[C@H]1CO | inactive: -0.819%
O=C(COC(=O)c1ccc(Br)o1)NC1CCCCC1 | inconclusive: 29.6%
C[C@H](CO)N1C[C@H](C)[C@@H](CN(C)Cc2ccc3c(c2)OCCN3C)OCc2cnnn2CCCC1=O | inconclusive: 25.1%
CO[C@@H]1CN(C)C(=O)c2ccc(NC(=O)Nc3c(C)noc3C)cc2OC[C@H](C)NC[C@H]1C | inconclusive: 43.4%
O=C(C[C@H]1C[C@H]2c3cc(NC(=O)Nc4ccc(C(F)(F)F)cc4)ccc3O[C@H]2[C@@H](CO)O1)NCc1ccc2c(c1)OCO2 | inconclusive: 38.4%
O=C(CCCN1C(=O)/C(=C/c2cccs2)SC1=S)Nc1cccnc1 | inactive: 3.55%
C[C@@H]1CN([C@H](C)CO)C(=O)c2cc(-c3cccc(C(=O)N(C)C)c3)cnc2O[C@H]1CN(C)S(=O)(=O)c1ccccc1 | inactive: 0.486%
COc1cc(NC(=O)c2ccccc2Cl)c(OC)cc1NC(=O)CN1CCCCC1 | inconclusive: 41.5%
COCCNC(=O)/C(C#N)=C/c1cc(C)n(-c2ccc(C)cc2)c1C | inconclusive: 40.2%
N#CC(C(O)c1ccccc1)N1CCOCC1 (stereo not given) | inactive: -6.03%
Cc1ccc(-c2ccc3c(c2)O[C@@H](CN(C)Cc2ccc(C(=O)O)cc2)[C@H](C)CN([C@H](C)CO)S3(=O)=O)cc1 | inconclusive: -0.818%
COc1cccc(-n2nc(C#N)c(Cl)cc2=O)c1 | inconclusive: 39.2%
CC(=O)Nc1sc(N/N=C/c2ccc(O)cc2)nc1-c1ccc(C)cc1 | inconclusive: 43.9%
O=C(CC1CC1)N1[C@H](CO)[C@H]2c3ccccc3N(S(=O)(=O)c3ccccc3)C[C@H]21 | inconclusive: 47%
N#CC(=Cc1ccccn1)c1nc(-c2ccc(Cl)cc2)cs1 | inconclusive: 42.1%
Cc1ccccc1Nc1nc(N)nc(COC(=O)c2cccc(S(=O)(=O)N(C)C)c2)n1 | inconclusive: 42.9%
CS(=O)(=O)N1CCN(CC(=O)NC2CCCCC2)CC1 | inconclusive: 42.5%
COc1ccc(NC(=O)N2CCC(CO)(CC3CCCCO3)CC2)c(OC)c1 (stereo not given) | inconclusive: 42.5%
COc1ccc2nc(NC(=O)NC3CCCCC3)sc2c1 | inconclusive: 44.3%
Cc1ccc(SCC(=O)NC2CC2)cc1 | inactive: 4.9%

Compound | inhibition
CC(C)NC(=O)Nc1ccc2c(c1)CC(=O)N([C@H](C)CO)C[C@@H](C)[C@@H](CN(C)Cc1ccc(Oc3ccccc3)cc1)O2 | inconclusive: 39.8%
O=C(CSc1ncnc2scc(-c3ccccc3)c12)N1CCN(Cc2ccc3c(c2)OCO3)CC1 | inconclusive: 46.1%
Cc1ccc(C(=O)NC2CC(C)(C)NC(C)(C)C2)cc1 | inconclusive: 49.4%
CN1CCN(/N=C/c2c3ccccc3c(Cl)c3ccccc23)CC1 | inconclusive: 45%
COc1ccc(NC(=O)N(C)C[C@H]2Oc3ccc(NS(=O)(=O)c4ccccc4)cc3C(=O)N([C@@H](C)CO)C[C@@H]2C)cc1 | active: 33.2%
Cc1ccc(CNC(=O)/C=C/c2ccc(S(=O)(=O)N3CCOCC3)cc2)cc1 | inconclusive: 41.3%
CCCOc1ccccc1NC(=O)c1c(-c2ccccc2)noc1C | inconclusive: 51.6%
CCc1ccc(S(=O)(=O)Nc2ccc(O)c3c(=O)cc(-c4ccccc4Cl)oc23)cc1 | inactive: 5.38%
CC(=O)c1c(C)[nH]c(C(=O)COC(=O)c2cc(S(=O)(=O)N(C)c3ccccc3)ccc2Cl)c1C | inconclusive: 34.1%
CC(=O)Nc1ccc(S(=O)(=O)N(C)c2ccc(OCC(=O)OCC(=O)NCc3ccco3)cc2)cc1 | inconclusive: 39.1%
ClCc1c2ccccc2cc2ccccc12 | inconclusive: 51.3%
CN(C)S(=O)(=O)c1cc(NC(=O)COC(=O)Cc2cccc3ccccc23)ccc1Cl | inconclusive: 43.4%
NC(=O)c1cccn1-c1ncc(C(F)(F)F)cc1Cl | inconclusive: 43.3%
O=c1c(Cc2c(F)cccc2Cl)c(O)ccn1CCCn1ccnc1 | inconclusive: 40.9%
Cc1ccc([C@H]2N[C@]3(CCCN(Cc4ccc(Cl)cc4)C3=O)[C@H]3C(=O)N(C)C(=O)[C@@H]23)cc1 | active: 26%
COCCNC(=O)c1ccccc1NS(=O)(=O)c1ccc(C)c([N+](=O)[O-])c1 | active: 32.3%
CC12CC(O)C3C(CCC4=CC(=O)CCC43C)C1CCC2=CCO (stereo not given) | inactive: 3.14%
Cc1cccc(C)c1NC(=S)N(CCN(C)C)C(C)c1ccccn1 (stereo not given) | inconclusive: 51.3%
C#CCOCCOCCOCCNc1nc(N2CCN(C(=O)[C@H](CCCCN)n3cc(CN)nn3)CC2)nc(N2CCN(C(=O)[C@H](CC(N)=O)n3cc(C(N)[C@H](C)CC)nn3)CC2)n1 (stereo not given in full) | inactive: 4%
Cc1cc(S(=O)(=O)NC2CCCCC2)ccc1-n1cnnn1 | inconclusive: 30.2%
O=C(O)c1ccc(S(=O)(=O)NC2CC2)cc1 | inconclusive: 41%
COc1ccc2c3c([nH]c2c1)[C@H](CO)N(Cc1ccccc1Cl)CC31CN(C(=O)C2CC2)C1 | active: 32%
CC1(C)C(C#N)=C(N)Oc2c1c(=O)oc1ccccc21 | inconclusive: 39.2%
CCOCCCNC(=O)C(Cc1ccccc1)NS(=O)(=O)c1cccc2nsnc12 (stereo not given) | inconclusive: 31.8%
Cc1ccc(Cn2nnc3c(=O)n(CC(=O)N4CCN(c5ccccc5)CC4)cnc32)cc1 | inconclusive: 42.5%
C=CCO/N=C/C1=C(O)C(C(=O)OC)C(C)(C)CC1=O (stereo not given) | inconclusive: 41.3%
CN(c1ccccc1)S(=O)(=O)c1cccc(NC(=O)C2=NNC(=O)CC2)c1 | inactive: -2.45%

Compound | inhibition
O=C(c1cc(COc2c(F)cccc2F)on1)N1CCC(c2ccccc2F)C1 (stereo not given) | inconclusive: 57.7%
CCOc1ccc(-n2c(C)nc(O)c2N=Nc2ccccc2)cc1 | inconclusive: 32.2%
N#Cc1ccc(C(=O)N(Cc2ccco2)c2c(N)n(Cc3ccccc3)c(=O)[nH]c2=O)cc1 | inactive: -7.29%
CC1CCN(C(=O)CNC(=O)c2cccc(OC(F)F)c2)CC1 | inconclusive: 46.9%
C[C@@H]1CN([C@H](C)CO)C(=O)c2cccc(NC(=O)Nc3cccc4ccccc34)c2O[C@@H]1CN(C)C(=O)Nc1ccc(C(F)(F)F)cc1 | active: 41.9%
C/C=C/c1ccc([C@H]2[C@@H](CO)N(C(C)=O)[C@H]2CNC(=O)c2ccccc2)cc1 | inactive: -4.21%
CNC(=O)C1CC(=O)N(c2ccc(OCC(=O)Nc3ccccc3)cc2)C1 (stereo not given) | inactive: 0.872%
COc1ccc2c3c([nH]c2c1)[C@H](CO)N(C(=O)CN(C)C)CC31CCN(CC2CCCC2)CC1 | active: 73.5%
COC(=O)COc1ccc(Cl)cc1C1Nc2ccccc2C(=O)N1c1ccc(OC)cc1 (stereo not given) | inconclusive: 39.5%
CCC(C)NC(=O)CSc1ncnc2sccc12 (stereo not given) | inconclusive: 32.1%
COc1ccccc1S(=O)(=O)Nc1ccc2cn[nH]c2c1 | inconclusive: 50.4%
C[C@@H]1CN([C@H](C)CO)S(=O)(=O)c2ccc(-c3ccc(F)cc3)cc2O[C@@H]1CN(C)CC1CC1 | active: 27.4%
CN(C)S(=O)(=O)n1cc(/C=C(\NC(=O)c2ccccc2)C(=O)NCCCN2CCOCC2)c2ccccc21 | inactive: 0.909%
CCCCNC(=O)c1ccc2c(OCC)n(CCCC)nc2c1 | inconclusive: 45.6%
Cc1ccc(-n2cc(CN3CCN(C(=O)c4ncn[nH]4)CC3)c(-c3ccc(F)cc3)n2)cc1 | inconclusive: 41%
COc1ccc(Cc2nnc(-c3ccccc3)o2)cc1 | inactive: 0.721%
N#Cc1sc2nc(-c3cccs3)cc(-c3ccccc3)c2c1N | inconclusive: 40%
CCCn1c(SCC(=O)N2CCCC(C)C2)nnc1-c1cccnc1 (stereo not given) | inconclusive: 44.1%
CO[C@H]1CN(C)C(=O)c2ccc(NC(=O)c3cc(C)on3)cc2OC[C@H](C)N(CC2CC2)C[C@H]1C | inactive: 0.92%
CC(=O)C(Cc1ccccc1)NC(=O)CCl (stereo not given) | inconclusive: 40.6%
O=C(COC(=O)c1ccc([N+](=O)[O-])o1)Nc1ccc(F)cc1 | inactive: 6.19%
O=C(Nc1ccccc1Cl)OCc1cncs1 | inconclusive: 36.9%
Cc1c(/C(O)=C2/C(=O)C(=O)N(CCN3CCOCC3)C2c2ccccn2)cnn1-c1ccccc1 (stereo not given) | inconclusive: 44.1%
O=C1C(Cl)=C(NS(=O)(=O)c2ccc([N+](=O)[O-])cc2)C(=O)c2ccccc21 | inconclusive: 43.3%
Cc1ccc(CN2CCN(CC(=O)N3CCC(C(N)=O)CC3)C2=O)cc1 | inconclusive: 48%
O=C(Nc1nc(-c2ccccn2)cs1)c1ccccc1-n1cnnn1 | inconclusive: 52.3%
